# Results taken from publication PMC4336329 (PLoS ONE, 2015).
# About 2,200 (0.71%) of roughly 310,000 compounds showed an effect of 50% or more. Effects have a minus sign here. The list shows a part of the results.
# Target: human ether-à-go-go-related gene (hERG) potassium channel (human, UniProt Q12809)
# Test: primary screen, population patch clamp on CHO cells stably expressing hERG
# Chain of human ether-à-go-go-related gene (hERG) potassium channel (Q12809 whole entry, looked up): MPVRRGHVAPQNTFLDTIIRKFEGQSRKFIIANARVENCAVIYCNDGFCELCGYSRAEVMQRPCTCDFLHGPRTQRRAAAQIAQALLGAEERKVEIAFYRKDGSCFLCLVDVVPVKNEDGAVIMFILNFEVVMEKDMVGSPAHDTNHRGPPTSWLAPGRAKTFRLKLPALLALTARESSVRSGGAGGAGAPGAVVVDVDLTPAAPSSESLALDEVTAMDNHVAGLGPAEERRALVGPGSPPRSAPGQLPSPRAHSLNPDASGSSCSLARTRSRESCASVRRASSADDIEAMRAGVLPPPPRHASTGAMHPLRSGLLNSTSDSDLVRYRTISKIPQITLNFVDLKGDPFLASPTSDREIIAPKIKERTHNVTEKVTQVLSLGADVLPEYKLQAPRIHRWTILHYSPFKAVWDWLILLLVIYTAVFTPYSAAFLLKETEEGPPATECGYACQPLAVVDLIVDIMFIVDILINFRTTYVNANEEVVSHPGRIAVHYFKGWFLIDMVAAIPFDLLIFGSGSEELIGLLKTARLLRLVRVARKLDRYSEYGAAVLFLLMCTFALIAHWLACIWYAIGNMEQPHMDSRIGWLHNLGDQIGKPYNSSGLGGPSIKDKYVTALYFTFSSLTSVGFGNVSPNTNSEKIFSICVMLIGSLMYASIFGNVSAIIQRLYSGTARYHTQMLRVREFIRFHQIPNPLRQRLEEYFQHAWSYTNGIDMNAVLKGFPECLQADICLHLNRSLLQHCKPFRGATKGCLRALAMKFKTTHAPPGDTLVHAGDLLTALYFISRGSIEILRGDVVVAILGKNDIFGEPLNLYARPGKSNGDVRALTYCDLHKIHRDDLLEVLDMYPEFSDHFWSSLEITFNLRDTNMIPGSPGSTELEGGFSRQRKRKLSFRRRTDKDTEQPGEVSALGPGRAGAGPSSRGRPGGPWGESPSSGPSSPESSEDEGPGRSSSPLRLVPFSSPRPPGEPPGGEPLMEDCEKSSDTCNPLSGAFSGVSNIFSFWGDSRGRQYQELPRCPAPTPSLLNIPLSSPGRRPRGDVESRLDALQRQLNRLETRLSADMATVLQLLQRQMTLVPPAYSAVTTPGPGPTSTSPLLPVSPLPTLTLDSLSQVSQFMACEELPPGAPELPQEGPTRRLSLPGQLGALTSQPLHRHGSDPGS
row,Structure (SMILES),"hERG current change (%, negative = inhibition) at 1uM [%]"
1,CC1(C)CC(=O)C2=C(C1)OC(N)=C(C#N)C2C#Cc1ccccc1 (centres unmarked),14.7
2,CN(C)S(=O)(=O)c1ccc(-c2ccccc2)cc1,11.9
3,Cc1csc2ncc(C(=O)NCCc3ccccc3)c(=O)n12,1.47
4,COc1ccc(N=C2NC(=O)S/C2=C\c2ccc(N(C)C)cc2)cc1,15.3
5,CCOC(=O)CSc1ccc(C(=O)Nc2ccc(OC)cc2)cn1,10.7
6,O=C1CC(=C2c3ccccc3-c3ccccc32)C(=O)N1CCN1CCN(c2ccccc2)CC1,7.75
7,COc1ccc(CC(NC(C)=O)C(=O)NC2CCN(C(=O)NCc3ccccc3)CC2)cc1OC (centres unmarked),4.4
8,Cn1cnc([N+](=O)[O-])c1Oc1ccccc1,14.2
9,Cc1ccn(C(C)CC(=O)N2CCc3ccccc32)n1 (centres unmarked),17.7
10,COc1cc(OC)c(CN2CCc3c([nH]c4ccccc34)C2)cc1Br,-7.57
11,Cc1cc(-c2onc(C)c2C(=O)Oc2ccc(Cl)cc2)no1,8.73
12,O=C(COc1ccc(Cl)cc1)N1CCN(c2ncccn2)CC1,2.43
13,CCN(CC(=O)NC1CCS(=O)(=O)C1)C(C)C(=O)Nc1ccc(F)cc1 (centres unmarked),5.2
14,CC1(C)Cc2ccccc2C(Nn2cnnc2)=N1,10.9
15,Cc1nn(C(C)C)c(C)c1CN1CCCC(C(=O)c2cccc(OC(C)C)c2)C1 (centres unmarked),-14.4
16,Cc1ccc(N(C(=O)CNC(=O)c2ccco2)C(C(=O)NC2CCCC2)c2cccnc2)cc1 (centres unmarked),-14.5
17,Cc1ccc(C)c(N2CCN(S(=O)(=O)c3cc4c(cc3C)NC(=O)CO4)CC2)c1,8.57
18,Nc1c(S(=O)(=O)c2cccc(Cl)c2)c2nc3ccccc3nc2n1/N=C/c1ccc(O)c(O)c1,7.06
19,CS(=O)(=O)NCCCCNc1ccc(C(F)(F)F)cc1[N+](=O)[O-],-5.13

row,Structure (SMILES),"hERG current change (%, negative = inhibition) at 1uM [%]"
1,COc1ccc(C(=O)COC(=O)Cn2c(C)csc2=O)c(OC)c1,5.35
2,Cn1cccc1/C=N/NC(N)=S,7.01
3,COc1ccc(C)cc1N(CC(N)=O)S(=O)(=O)c1ccc(C)cc1,-3.84
4,O=C(OCN1C(=O)c2ccccc2C1=O)c1ccccc1,0.0125
5,Cc1ccc(OCC(=O)Nc2ccc(NC(=O)c3ccccc3)c(C)c2)cc1,11.6
6,COc1ccc(NC(=O)CCN2C(=O)C3C4CCC(C4)C3C2=O)cc1 (centres unmarked),2.12
7,O=[N+]([O-])c1ccccc1CN1CC=C(c2ccc(F)cc2)CC1,12.9
8,O=C1CNc2ccc(C(=O)N3CCN(c4ccccn4)CC3)cc2N1,18.6
9,Cn1c(C(=O)N2CCC(C(=O)N3CCC4(CC3)OCCO4)CC2)cc2sccc21,9
10,Cc1oc(-c2ccccc2)cc1C(N)=O,11.2
11,CCOC(=O)N1CCN(C(=O)c2cc(Cl)c(Cl)cc2C(=O)O)CC1,19
12,CC1=NOC(=O)/C1=C\c1ccccc1,7.39
13,COCCn1c(=NC(=O)CSCC(=O)Nc2cc(C)on2)sc2cc(C(=O)OC)ccc21,1.04
14,COC(=O)CCCCCc1ccc(C(C)=O)s1,4.86
15,COC(=O)c1cccc(CN2C(=O)SC(Nc3ccccc3)C2=O)c1 (centres unmarked),-0.398
16,O=C(NCCCO)/C(=C\c1cn(-c2ccccc2)nc1-c1cccnc1)NC(=O)c1ccccc1,3.53
17,CC(C)(O)CCCC(C)(O)c1ccc(C(=O)O)cc1O (centres unmarked),8.89
18,Cc1nc(SCC(=O)Nc2c(C)nn(C)c2C)c2cnn(-c3ccccc3)c2n1,17.9
19,Cn1c(CN2CCCC2)nc2cc(NC(=O)COc3ccc([N+](=O)[O-])cc3)ccc21,0.265

row,Structure (SMILES),"hERG current change (%, negative = inhibition) at 1uM [%]"
1,O=C(COC(=O)c1ccc(Cl)nc1)Nc1c(Cl)cccc1C(F)(F)F,13.6
2,Cc1ccc(C)c(N2CCN(C(=O)CCS(=O)(=O)c3cccc4nonc34)CC2)c1,3.92
3,O=C(NC(Cc1ccccc1)C(=O)N1CCCCCC1)c1ccccc1 (centres unmarked),-1.66
4,Cc1ccc(C(c2nnnn2CS(=O)(=O)c2ccc(C)cc2)N2CCC(C(N)=O)CC2)cc1 (centres unmarked),-17.2
5,CC(=C/C(=O)O)/C(=C\c1ccc(Br)o1)C(=O)O,6.83
6,Nc1nnnn1/N=C/c1cccc(O)c1,16.6
7,Cn1c(/C(C#N)=N/O)nc2ccccc21,-1.03
8,COc1ccc(-n2nc(C(=O)NCC(=O)N3CCCCCC3)c3ccccc3c2=O)cc1,15.8
9,COc1cc(C(C(=O)NCc2ccccc2)N(Cc2ccco2)C(=O)c2cnccn2)cc(OC)c1OC (centres unmarked),14.7
10,Cc1cc(Cl)c(S(=O)(=O)Nc2ccc3c(c2)OCO3)cc1OCC(=O)NC1CCCCC1,24.1
11,O=C(NCCOc1nc(N2CCOCC2)nc(N2CCOCC2)n1)Nc1ccc(Cl)cc1,15.9
12,c1ccc(CCN2CCN=C2Nc2ccccc2)cc1,1.68
13,CCCCC(=O)N/N=C/c1c(O)n(Cc2ccc(F)cc2)c(=O)[nH]c1=O,13.9
14,O=C(O)C(=O)O.O=[N+]([O-])c1ccc(Oc2ccc(C(F)(F)F)cn2)cc1,9.14
15,O=c1c(C(c2ccc(Br)cc2)c2c(O)nc3n(c2=O)CCS3)c(O)nc2n1CCS2,7.39
16,Cc1nn(CC2CC2)c(=O)n1-c1ccc(Oc2ccccc2)cc1,11.2
17,COc1ccc(CC2(CO)CCN(Cc3ccncc3)CC2)cc1,7.36
18,CCC(CC)CN1C(Nc2ccccc2)=NC[C@@H]1CC(C)C,-23.5
